# In the supplement of paper PMC8728848:
# Some of the results follow.
# B1: SBD-G4S3-SBD (protein)
# chain: MASIPSSASVQLDSYNYDGSTFSGKIYVKNIAYSKKVTVVYADGSDNWNNNGNIIAASFSGPISGSNYEYWTFSASVKGIKEFYIKYEVSGKTYYDNNNSANYQVSTGGGGSGGGGSGGGGSEFASIPSSASVQLDSYNYDGSTFSGKIYVKNIAYSKKVTVVYADGSDNWNNNGNIIAASFSGPISGSNYEYWTFSASVKGIKEFYIKYEVSGKTYYDNNNSANYQVST
# Key:
# Assay in all cases: glycan array binding signal (z-score within array); higher = stronger binding
# Conditions in all cases: glycan notation: IUPAC condensed, linker removed
# [1] = molecular target: Gal(b1-4)GlcNAc(b1-3)Gal(b1-4)GlcNAc(b1-6)[Gal(b1-3)]GalNAc
# Outline: (§1)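 Glycan array binding is given as a within-array Z-score, which can be read as non-binding when negative. The arrays, 3228 of them, came from the Consortium for Functional Glycomics database and were retained only where the protein sequence was available. Z-scores were averaged across arrays of the same protein sequence at different concentrations or buffers and across linkers.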
# [2] = molecular target: Gal(b1-4)GlcNAc(b1-3)Gal(b1-4)[Fuc(a1-3)]GlcNAc(b1-3)Gal(b1-4)[Fuc(a1-3)]GlcNAc
# Outline: as §1
# [3] = molecular target: Gal(b1-4)GlcNAc(b1-3)GalNAc
# Outline: as §1
# [4] = molecular target: Gal(b1-4)GlcNAc(b1-3)[Fuc(a1-3)GlcNAc(b1-6)]Gal(b1-4)Glc
# Outline: as §1
# [5] = molecular target: Gal(b1-4)GlcNAc(b1-3)[Gal(b1-4)GlcNAc(b1-6)]Gal(b1-4)GlcNAc
# Outline: as §1
# [6] = molecular target: Gal(b1-4)GlcNAc(b1-3)[GlcNAc(b1-6)]Gal(b1-4)GlcNAc
# Outline: as §1
# [7] = molecular target: Gal(b1-4)GlcNAc(b1-6)Gal(b1-4)GlcNAc
# Outline: as §1
# [8] = molecular target: Gal(b1-4)GlcNAc(b1-6)GalNAc
# Outline: as §1
# [9] = molecular target: Gal(b1-4)GlcNAc(b1-6)[Gal(b1-3)]GalNAc
# Outline: as §1
# [10] = molecular target: Gal(b1-4)GlcNAc(b1-6)[Gal(b1-4)GlcNAc(b1-3)]GalNAc
# Outline: as §1
# Gal(b1-4)GlcNAc6P = molecular target: Gal(b1-4)GlcNAc6P
# Outline: as §1
# Gal(b1-6)Gal = molecular target: Gal(b1-6)Gal
# Outline: as §1
# Gal3S(b1-3)GalNAc = molecular target: Gal3S(b1-3)GalNAc
# Outline: as §1
# Gal3S(b1-3)GlcNAc = molecular target: Gal3S(b1-3)GlcNAc
# Outline: as §1
# [11] = molecular target: Gal3S(b1-3)[Fuc(a1-4)]GlcNAc
# Outline: as §1
# Gal3S(b1-4)Glc = molecular target: Gal3S(b1-4)Glc
# Outline: as §1
# Gal3S(b1-4)Glc6S = molecular target: Gal3S(b1-4)Glc6S
# Outline: as §1
# Gal3S(b1-4)GlcNAc = molecular target: Gal3S(b1-4)GlcNAc
# Outline: as §1
# [12] = molecular target: Gal3S(b1-4)[Fuc(a1-3)]Glc6S
# Outline: as §1
# [13] = molecular target: Gal3S(b1-4)[Fuc(a1-3)]GlcNAc
# Outline: as §1
# [14] = molecular target: Gal3S(b1-4)[Fuc(a1-3)]GlcNAc6S
# Outline: as §1
# Gal3S4S(b1-4)GlcNAc = molecular target: Gal3S4S(b1-4)GlcNAc
# Outline: as §1
# Gal3S6S(b1-4)GlcNAc = molecular target: Gal3S6S(b1-4)GlcNAc
# Outline: as §1
# Gal3S6S(b1-4)GlcNAc6S = molecular target: Gal3S6S(b1-4)GlcNAc6S
# Outline: as §1
# Gal4S(b1-4)GlcNAc = molecular target: Gal4S(b1-4)GlcNAc
# Outline: as §1
# Gal4S6S(b1-4)GlcNAc = molecular target: Gal4S6S(b1-4)GlcNAc
# Outline: as §1
# Gal6P(b1-4)GlcNAc = molecular target: Gal6P(b1-4)GlcNAc
# Outline: as §1
# Gal6S(b1-3)GlcNAc = molecular target: Gal6S(b1-3)GlcNAc
# Outline: as §1
# Gal6S(b1-3)GlcNAc6S = molecular target: Gal6S(b1-3)GlcNAc6S
# Outline: as §1
# Gal6S(b1-4)Glc = molecular target: Gal6S(b1-4)Glc
# Outline: as §1
# Gal6S(b1-4)Glc6S = molecular target: Gal6S(b1-4)Glc6S
# Outline: as §1
# Gal6S(b1-4)GlcNAc = molecular target: Gal6S(b1-4)GlcNAc
# Outline: as §1
# Gal6S(b1-4)GlcNAc6S = molecular target: Gal6S(b1-4)GlcNAc6S
# Outline: as §1
# GalNAc(a1-3)Gal = molecular target: GalNAc(a1-3)Gal
# Outline: as §1
# GalNAc(a1-3)GalNAc = molecular target: GalNAc(a1-3)GalNAc
# Outline: as §1
# [15] = molecular target: GalNAc(a1-3)GalNAc(b1-3)Gal(a1-4)Gal(b1-4)Glc
# Outline: as §1
# [16] = molecular target: GalNAc(a1-3)GalNAc(b1-3)Gal(a1-4)Gal(b1-4)GlcNAc
# Outline: as §1
# GalNAc(b1-3)Gal = molecular target: GalNAc(b1-3)Gal
# Outline: as §1
# [17] = molecular target: GalNAc(b1-3)Gal(a1-4)Gal(b1-4)GlcNAc
# Outline: as §1
# [18] = molecular target: GalNAc(b1-3)Gal(a1-4)Gal(b1-4)GlcNAc(b1-3)Gal(b1-4)Glc
# Outline: as §1
# [19] = molecular target: GalNAc(b1-3)Gal(a1-6)Gal(b1-4)Glc
# Outline: as §1
# GalNAc(b1-3)GalNAc = molecular target: GalNAc(b1-3)GalNAc
# Outline: as §1
# GalNAc(b1-3)GlcNAc = molecular target: GalNAc(b1-3)GlcNAc
# Outline: as §1
# GalNAc(b1-4)Gal(b1-4)Glc = molecular target: GalNAc(b1-4)Gal(b1-4)Glc
# Outline: as §1
# GalNAc(b1-4)GlcNAc = molecular target: GalNAc(b1-4)GlcNAc
# Outline: as §1
binder,measurement,setting,value
B1,glycan array binding signal (z-score),[1],0.486
same,glycan array binding signal (z-score),[2],-0.376
same,glycan array binding signal (z-score),[3],-0.41
same,glycan array binding signal (z-score),[4],-0.39
same,glycan array binding signal (z-score),[5],0.197
same,glycan array binding signal (z-score),[6],-0.208
same,glycan array binding signal (z-score),[7],-0.397
same,glycan array binding signal (z-score),[8],-0.154
same,glycan array binding signal (z-score),[9],0.053
same,glycan array binding signal (z-score),[10],-0.077
same,glycan array binding signal (z-score),Gal(b1-4)GlcNAc6P,-0.348
same,glycan array binding signal (z-score),Gal(b1-6)Gal,-0.136
same,glycan array binding signal (z-score),Gal3S(b1-3)GalNAc,-0.369
same,glycan array binding signal (z-score),Gal3S(b1-3)GlcNAc,-0.406
same,glycan array binding signal (z-score),[11],-0.382
same,glycan array binding signal (z-score),Gal3S(b1-4)Glc,-0.146
same,glycan array binding signal (z-score),Gal3S(b1-4)Glc6S,-0.284
same,glycan array binding signal (z-score),Gal3S(b1-4)GlcNAc,-0.245
same,glycan array binding signal (z-score),[12],1.17
same,glycan array binding signal (z-score),[13],-0.295
same,glycan array binding signal (z-score),[14],-0.211
same,glycan array binding signal (z-score),Gal3S4S(b1-4)GlcNAc,-0.325
same,glycan array binding signal (z-score),Gal3S6S(b1-4)GlcNAc,-0.338
same,glycan array binding signal (z-score),Gal3S6S(b1-4)GlcNAc6S,-0.352
same,glycan array binding signal (z-score),Gal4S(b1-4)GlcNAc,-0.382
same,glycan array binding signal (z-score),Gal4S6S(b1-4)GlcNAc,-0.35
same,glycan array binding signal (z-score),Gal6P(b1-4)GlcNAc,-0.342
same,glycan array binding signal (z-score),Gal6S(b1-3)GlcNAc,0.167
same,glycan array binding signal (z-score),Gal6S(b1-3)GlcNAc6S,0.168
same,glycan array binding signal (z-score),Gal6S(b1-4)Glc,-0.164
same,glycan array binding signal (z-score),Gal6S(b1-4)Glc6S,-0.305
same,glycan array binding signal (z-score),Gal6S(b1-4)GlcNAc,4.01
same,glycan array binding signal (z-score),Gal6S(b1-4)GlcNAc6S,0.041
same,glycan array binding signal (z-score),GalNAc(a1-3)Gal,1.05
same,glycan array binding signal (z-score),GalNAc(a1-3)GalNAc,-0.391
same,glycan array binding signal (z-score),[15],-0.403
same,glycan array binding signal (z-score),[16],-0.411
same,glycan array binding signal (z-score),GalNAc(b1-3)Gal,-0.339
same,glycan array binding signal (z-score),[17],-0.37
same,glycan array binding signal (z-score),[18],-0.385
same,glycan array binding signal (z-score),[19],-0.283
same,glycan array binding signal (z-score),GalNAc(b1-3)GalNAc,-0.346
same,glycan array binding signal (z-score),GalNAc(b1-3)GlcNAc,-0.02
same,glycan array binding signal (z-score),GalNAc(b1-4)Gal(b1-4)Glc,-0.124
same,glycan array binding signal (z-score),GalNAc(b1-4)GlcNAc,-0.394
